The list shows a part of the results.

The target in the test is T1, MBP-FoxP1dN (Mus musculus, UniProt P58462 326-579).
T1 sequence: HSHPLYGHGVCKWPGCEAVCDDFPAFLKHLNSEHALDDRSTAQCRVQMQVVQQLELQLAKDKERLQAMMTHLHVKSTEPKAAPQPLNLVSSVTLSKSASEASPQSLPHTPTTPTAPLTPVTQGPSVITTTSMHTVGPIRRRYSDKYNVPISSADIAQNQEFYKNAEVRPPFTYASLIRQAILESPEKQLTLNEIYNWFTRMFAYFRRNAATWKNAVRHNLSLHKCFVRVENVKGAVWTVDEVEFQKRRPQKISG
The experiment in a line: PD-seq (MBP pull-down with sequencing); 20 mM Tris-HCl pH 7.5, 100 mM NaCl, 1.5 mM MgCl2, 0.4 uM protein, 0.1 uM dsDNA library, 30 min, room temperature, amylose pull-down; high values mean tight binding. To be noted: protein: recombinant; tags: His6-MBP; chain copies: 2; dsDNA, one strand shown. In a few lines:
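Binding is reads-per-million enrichment of pull-down over input, with replicates pooled. It comes from 30 min room-temperature incubation in Tris pH 7.5 buffer with NaCl and MgCl2 of 0.4 µM His6-MBP-tagged, N-terminally truncated mouse FoxP3 or FoxP1 fragment from E. coli with 0.1 µM Klenow-filled degenerate double-stranded DNA library, followed by amylose resin capture, three washes and Illumina sequencing of the released DNA.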
Take “GATGATTGTTCTCCCAGCTGATGAATTGACCTTCTCGAGTAAACAAATTTTCCTAATCTTTCTGTTCAAGCGCCATCTAC”: the binding signal is 0.921 RPM ratio (pull-down/input).

Regarding “GATGATTGTTCTCCCAGCTGATGAATTGGCCGGGTCGAGTAAACAAATTTTCCTAATCTTTCTGTTCAAGCGCCATCTAC”, the binding signal was 0.665 RPM ratio (pull-down/input).

“GATGATTGTTCTCCCAGCTGATGAATTAGCCAAATCGAGTAAACAAATTTTCCTAATCTTTCTGTTCAAGCGCCATCTAC”: the binding signal was 1.11 RPM ratio (pull-down/input).

In the case of “GATGATTGTTCTCCCAGCTGATGAATTCGGTGACTCGAGTAAACAAATTTTCCTAATCTTTCTGTTCAAGCGCCATCTAC”, the binding signal was 0.83 RPM ratio (pull-down/input).

For the sequence “GATGATTGTTCTCCCAGCTGATGAATTAAGAATCTCGAGTAAACAAATTTTCCTAATCTTTCTGTTCAAGCGCCATCTAC”, the binding signal was 0.823 RPM ratio (pull-down/input).

“GATGATTGTTCTCCCAGCTGATGAATTGGCCTTTTCGAGTAAACAAATTTTCCTAATCTTTCTGTTCAAGCGCCATCTAC”: the binding signal was 0.882 RPM ratio (pull-down/input).

“GATGATTGTTCTCCCAGCTGATGAATTGACCTCTTCGAGTAAACAAATTTTCCTAATCTTTCTGTTCAAGCGCCATCTAC”: the binding signal is 0.884 RPM ratio (pull-down/input).

Take “GATGATTGTTCTCCCAGCTGATGAATTCAGTTCCTCGAGTAAACAAATTTTCCTAATCTTTCTGTTCAAGCGCCATCTAC”: the binding signal was 0.82 RPM ratio (pull-down/input).

Regarding “GATGATTGTTCTCCCAGCTGATGAATTGAGCACCTCGAGTAAACAAATTTTCCTAATCTTTCTGTTCAAGCGCCATCTAC”, the binding signal is 0.782 RPM ratio (pull-down/input).

With “GATGATTGTTCTCCCAGCTGATGAATTAAAGGAATCGAGTAAACAAATTTTCCTAATCTTTCTGTTCAAGCGCCATCTAC”, the binding signal is 0.934 RPM ratio (pull-down/input).

Consider “GATGATTGTTCTCCCAGCTGATGAATTGCAGGCTTCGAGTAAACAAATTTTCCTAATCTTTCTGTTCAAGCGCCATCTAC”, for which the binding signal is 0.964 RPM ratio (pull-down/input).

“GATGATTGTTCTCCCAGCTGATGAATTGGAGCTCTCGAGTAAACAAATTTTCCTAATCTTTCTGTTCAAGCGCCATCTAC”: the binding signal is 0.773 RPM ratio (pull-down/input).

Regarding “GATGATTGTTCTCCCAGCTGATGAATTATACATTTCGAGTAAACAAATTTTCCTAATCTTTCTGTTCAAGCGCCATCTAC”, the binding signal is 1.27 RPM ratio (pull-down/input).

Consider “GATGATTGTTCTCCCAGCTGATGAATTGGGGAGCTCGAGTAAACAAATTTTCCTAATCTTTCTGTTCAAGCGCCATCTAC”, for which the binding signal was 0.737 RPM ratio (pull-down/input).

Turning to “GATGATTGTTCTCCCAGCTGATGAATTTAAAATGTCGAGTAAACAAATTTTCCTAATCTTTCTGTTCAAGCGCCATCTAC”, the binding signal is 0.928 RPM ratio (pull-down/input).

As to “GATGATTGTTCTCCCAGCTGATGAATTGTAACACTCGAGTAAACAAATTTTCCTAATCTTTCTGTTCAAGCGCCATCTAC”, the binding signal was 1.17 RPM ratio (pull-down/input).

Regarding “GATGATTGTTCTCCCAGCTGATGAATTTTAGGAATCGAGTAAACAAATTTTCCTAATCTTTCTGTTCAAGCGCCATCTAC”, the binding signal was 0.892 RPM ratio (pull-down/input).

Regarding “GATGATTGTTCTCCCAGCTGATGAATTTACGATCTCGAGTAAACAAATTTTCCTAATCTTTCTGTTCAAGCGCCATCTAC”, the binding signal was 1.15 RPM ratio (pull-down/input).

These data come from paper PMC12820563, “FoxP3 forms a head-to-head dimer in vivo and stabilizes its multimerization on adjacent microsatellites”.
